# In the supplement of paper PMC4466236:
# Whole data set: some 33,000 sequences, median “E-score (dimensionless, -0.5 to 0.5)” near -0.058, cut for the highest 2% near 0.35. The list shows a part of the results.
# Tested on: MvaT
# Experiment: PBM 8-mer E-score (mean of HK and ME arrays) (E-score (dimensionless, -0.5 to 0.5)); higher = stronger relative binding preference; most listed sequences are background and not binding sites
# Outline: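 Reported values are rank-based E-scores, taken as the mean of two universal arrays and parsed with a custom script. Each 8-mer score falls between -0.5 and 0.5. The arrays, ME and HK, were double-stranded 60-mers with a constant 25-mer primer region and a variable 35-mer region covering all 8-mers. They were probed, by an earlier protocol, with full-length P. aeruginosa MvaT carrying an N-terminal glutathione S-transferase fusion.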
row,Sequence,PBM 8-mer E-score
1,CAGAGGTC,-0.199
2,GAGGGCGA,-0.156
3,CTGATTCC,-0.0539
4,GCATTTAC,0.181
5,AATAGTTG,0.309
6,CCCGATCC,-0.223
7,CGTCACGC,-0.146
8,AAAACAAA,0.216
9,GCTGGAAC,-0.187
10,GCACGTGC,0.0443
11,ACACCAAA,0.131
12,AGGTAACC,-0.13
13,CGGATTCC,-0.244
14,ACAGCGCG,-0.1
15,ATCTGTGC,-0.012
16,CGAGGAGA,-0.34
17,AAGTCAGT,0.151
18,AGTAATGA,0.165
19,CGCGCCTC,-0.226
20,GCCCGACC,-0.267
21,AGTAGATA,0.202
22,AAGGCAAG,-0.172
23,AGGAAGTC,-0.26
24,AGTTGCCC,0.0202
25,ACATTGAT,0.246

row,Sequence,PBM 8-mer E-score
1,AGCCCACC,-0.181
2,GGGAAAAA,-0.0493
3,AATAAACA,0.309
4,AGGTGGGA,-0.0733
5,GGCATATA,0.217
6,ACCGCTGA,-0.224
7,AATAGCAG,0.0422
8,AATCGGTG,-0.0611
9,ATTCTATC,0.184
10,AGGACACC,-0.165
11,CTAGGGTA,-0.0501
12,ACCTCGAC,-0.123
13,GTTCCAAA,0.0409
14,GATCATGC,-0.141
15,CTTCAGCA,-0.0491
16,GTCTTGAA,-0.0988
17,AAGACTAG,0.09
18,AAGCCCGT,-0.0498
19,GCCGACAA,-0.0127
20,ATCTTTGA,0.0906
21,GCACAGCC,-0.169
22,ACCCGATG,-0.191
23,TAAAAACA,0.278
24,TGGGTAAA,0.114
25,CCAAACGC,-0.0718

row,Sequence,PBM 8-mer E-score
1,GAGAAATC,-0.0566
2,ACGTCTCC,-0.283
3,GACTCCGA,-0.0775
4,AATGGGAG,-0.181
5,ACGTTGTG,-0.0716
6,CGGCGACA,-0.204
7,GACCTGAA,-0.131
8,CTAATCTC,0.0339
9,TCAGCTAA,-0.0514
10,CACGAGAG,-0.223
11,AATGGGAT,0.138
12,GATACATA,0.32
13,CGCATGTC,-0.147
14,CGTAACCA,-0.118
15,CCTTCCCC,-0.27
16,CGGAACCG,-0.186
17,AAACGTTA,0.178
18,CCAAGGGC,-0.3
19,ACACCAGA,-0.0368
20,AGTCCTGA,0.0525
21,GCTCTATA,0.077
22,CGATCTCC,-0.203
23,TTTAGAAA,0.271
24,CGGTTTAC,0.0161
25,CTGACTGA,-0.0901

row,Sequence,PBM 8-mer E-score
1,AATGGACT,-0.079
2,AATTATAT,0.461
3,AAAGTGGG,-0.0867
4,CAGCTAGC,-0.212
5,AGAACAAA,0.141
6,CGCGCGAG,-0.0934
7,CGATCTTA,0.0127
8,ACGGTCCT,-0.21
9,CGAAGAGC,-0.161
10,TTACGGAA,0.136
11,TAGTCAAA,0.179
12,CATTGAGC,-0.311
13,CTTAAGAC,0.0361
14,CCGCGTAA,0.062
15,ATGCGCTA,0.062
16,CACTAAGC,-0.00659
17,AGCTTGAT,-0.107
18,ATAGCAAG,0.13
19,GCGTCAAC,-0.104
20,ATGATGGG,-0.0211
21,AGTGCCGG,-0.0286
22,AACCGTGT,-0.135
23,ACGAGACG,-0.22
24,GTTTGCCA,-0.124
25,AAACCCAT,-0.0863

row,Sequence,PBM 8-mer E-score
1,CGGGGACA,-0.172
2,GTTAGTCA,0.19
3,CACGCAAG,-0.204
4,ACTGCACC,0.0311
5,ATACTATA,0.377
6,AAAATCCG,-0.0637
7,GCGTCTGA,-0.16
8,AAAATCGA,0.17
9,CTGAGGCA,-0.221
10,AACGATAT,0.168
11,CGTAAAAG,0.179
12,CGATGCGC,-0.161
13,CAACTCAA,-0.00711
14,GACCGTAA,0.0868
15,AGACGGAC,-0.174
16,AAGACGGG,0.0468
17,TAGGACTA,-0.0422
18,AAATCTTG,0.0145
19,CAGCTCTC,-0.243
20,CAGCAGTA,0.0787
21,GCATTACC,-0.0713
22,ATCCCCCA,-0.166
23,ACGAGCGC,-0.16
24,AATTTGGC,0.161
25,AATTACGT,0.263

row,Sequence,PBM 8-mer E-score
1,ATGTGATA,0.196
2,GCCTAAGC,-0.261
3,ACTGGAAG,-0.0943
4,GAACGCCC,-0.222
5,ACGGTAGC,-0.186
6,CTCGCTTC,-0.129
7,GGCGCAGA,-0.173
8,CTACAACC,0.099
9,ACATATGG,0.145
10,CAAACGTG,-0.038
11,AACGTCGA,-0.066
12,GGCCGGAA,-0.135
13,CACAATAG,0.176
14,TAGCATAA,0.137
15,CCTATCGA,-0.0881
16,CGGCCGCC,-0.254
17,AATTGTGC,0.2
18,GCGTACGA,-0.0931
19,TAATAGGA,0.222
20,ACTTTATG,0.194
21,CGTCTAGA,-0.153
22,GATGCCAA,-0.105
23,CGTGCTCA,-0.162
24,CCACGACG,-0.122
25,CTCCCACC,-0.143

row,Sequence,PBM 8-mer E-score
1,CGTCAGGC,-0.177
2,GAGGCCGA,-0.158
3,AAACATAG,0.216
4,ACTTCTAG,0.122
5,CGCACTCA,-0.118
6,CGATAGAG,-0.13
7,ATTCCAAA,0.197
8,TGACCACA,-0.0974
9,GGCCGGCA,-0.0768
10,ATTGGGGG,-0.233
11,AGCCGTAG,-0.193
12,GCCAGTAA,-0.0282
13,ACATGTTC,0.121
14,ACAATAGA,0.232
15,CCATTGTC,0.0472
16,AAGTGCGG,-0.0343
17,CGCGTAAG,-0.0607
18,CGACACCA,-0.0804
19,ATTCGCCG,-0.073
20,CAGCGCCA,-0.301
21,CAATTATC,0.264
22,GTAGCGAA,-0.139
